Data from patent US12037378B2, “Variant CD58 domains and uses thereof” (NOVARTIS AG, priority 2019, dated 2024).
“Also recorded” adds a separate entry of the source.

Tests used:
Type in all cases: cell-based, human
Nalm6-luc cells = assay: RTCC assay with BBMs, Nalm6-luc target cells; conditions: expanded T cells, E:T 3:1, 24 h
Method: (§1) A RTCC assay with the BBMs of Example 1 was performed to measure the ability of the BBMs to elicit RTCC against CD19+ Nalm6-luc and Karpas422-luc cells. Nalm-6 is a human B cell precursor leukemia cell line and Karpas422 is a human B-cell non-hodgkin lymphoma cell line. Briefly, Nalm6 and Karpas422 cells engineered to express the firefly luciferase reporter gene were cultured in RPM11640 culture media with 10% fetal bovine serum (FBS). 10,000 target cells with serial diluted BBMs or gH isotype antibody control (agH-CD3hi) were seeded on 384-well flat-bottom microtiter plate. Primary human T cells were isolated from cryopreserved peripheral blood mononuclear cells (PBMCs) and expanded using anti-CD3 and anti-CD28 dynabeads (Thermo fisher, catalog #11131D) and subsequently cryopreserved. Expanded T cells were thawed and aliquoted to the plate to achieve an effector cell (i.e., T cell) to target cell (i.e., cancer cell) ratio (E:T ratio) of 3:1. Plates were incubated in a 37° C. incubator with 5% CO2 overnight. Following the co-incubation, Bright Glo (Promega, catalog #E2620) was added to all wells and the luminescence signal was subsequently measured on an Envision (Perkin Elmer). Target cells with Bright Glo served as maximal signal. The percent RTCC of target cells was calculated using the following formula: [100−(sample/maximal signal)*100%].

Karpas422-luc cells = assay: RTCC assay with BBMs, Karpas422-luc target cells; conditions: expanded T cells, E:T 3:1, 24 h
Method: as §1

CD3+ T cells = assay: T cell proliferation upon co-culture with CD19 expressing target cells (Cell Trace Violet); conditions: co-culture with Karpas422 or Nalm-6, E:T 1:1, 96 hrs
Method: The BBMs described in Example 1, containing the variable regions of NEG258 and NEG218, were evaluated for their ability to induce T cell proliferation upon co-culture with CD19 expressing target cells. Briefly, Karpas422 and Nalm-6 target cells stably expressing firefly luciferase were irradiated on the day of the assay and plated at a density of 60,000 cells per well in a Costar 96 well plate (Corning, Cat #3904) in T Cell Media (TCM) [RPMI-1640 (ThermoFisher Scientific, Cat #11875-085), 10% FBS (Seradigm, Cat #1500-500), 1% L-Glutamine (Thermo Fisher Scientific, Cat #25830-081), 1% Non Essential Amino Acids (Thermo Fisher Scientific, Cat #11140-050), 1% Pen/Strep (Thermo Fisher Scientific, Cat #15070063), 1% HEPES (Thermo Fisher Scientific, Cat #15630080), Sodium Pyruvate (Thermo Fisher Scientific, Cat #11360-070), 0.1% Beta-mercaptoethanol (Thermo Fisher Scientific, Cat #21985-023)]. Peripheral blood mononuclear cells (PBMCs) previously isolated from Leukopak donors (Hemacare) and cryopreserved were thawed and Pan T cells were isolated by negative selection using the Pan T cell Isolation Kit, human [Miltenyi Biotec, Cat #130-096-535] following the manufacturer's protocol. Isolated T cells were labelled with 5 μM Cell Trace Violet (CTV) (Thermo Fisher Scientific, Cat #C34557) following the manufacturer's protocol and 60,000 CTV labeled T cells were co-cultured with 60,000 target cells to achieve an E:T ratio of 1:1. A dilution series of the NEG258- and NEG218-based BBMs and control binding molecules (agH-CD3hi) ranging from 16 μM-10,000 μM was added to cells and the plates were incubated in a 5% CO2, 37° C. incubator for 96 hrs. […] The samples were then run on BD LSR Fortessa and analyzed using FlowJo to determine % proliferated CD3+ T cells based on CD3 staining and dilution of Cell Trace Violet dye.

Molecule	RTCC activity against Nalm6-luc cells (Nalm6-luc cells)	RTCC activity against Karpas422-luc cells (Karpas422-luc cells)	T cell proliferation (CD3+ T cells)	T cell proliferation, relative potency (CD3+ T cells)
NEG258-based BBM: knob-into-hole IgG1 bispecific with NEG258-based anti-CD19 Fab and CD3hi anti-CD3 scFv (antibody) heavy: QVQLVQSGAEVKKPGASVKVSCKASGYTFTTYWIQWVRQAPGQRLEWMGAVYPGDADTRYTQKFQGRVTLTADRSASTAYMELSSLRSEDTAVYYCGRDAGLEYYALDYWGQGTLVTVSSASTKGPSVFPLAPSSKSTSGGTAALGCLVKDYFPEPVTVSWNSGALTSGVHTFPAVLQSSGLYSLSSVVTVPSSSLGTQTYICNVNHKPSNTKVDKRVEPKSCDKTHTCPPCPAPELLGGPSVFLFPPKPKDTLMISRTPEVTCVVVAVSHEDPEVKFNWYVDGVEVHNAKTKPREEQYASTYRVVSVLTVLHQDWLNGKEYKCKVSNKALAAPIEKTISKAKGQPREPQVCTLPPSREEMTKNQVSLSCAVKGFYPSDIAVEWESNGQPENNYKTTPPVLDSDGSFFLVSKLTVDKSRWQQGNVFSCSVMHEALHNHYTQKSLSLSPGK light: EIVMTQSPATLSVSPGERATLSCRASQDVGTAVAWYQQKPGQAPRLLIYWASTRHTGIPARFSGSGSGTEFTLTISSLQSEDFAVYFCQQYANFPLYTFGQGTKLEIKRTVAAPSVFIFPPSDEQLKSGTASVVCLLNNFYPREAKVQWKVDNALQSGNSQESVTEQDSKDSTYSLSSTLTLSKADYEKHKVYACEVTHQGLSSPVTKSFNRGEC EVQLVESGGGLVQPGGSLKLSCAASGFTFNTYAMNWVRQASGKGLEWVGRIRSKYNNYATYYADSVKDRFTISRDDSKSTLYLQMNSLKTEDTAVYYCVRHGNFGNSYVSWFAYWGQGTLVTVSSGGGGSGGGGSGGGGSGGGGSQAVVTQEPSLTVSPGGTVTLTCRSSTGAVTTSNYANWVQQKPGQAPRGLIGGTNKRAPWTPARFSGSLLGDKAALTLSGAQPEDEAEYFCALWYSNLWVFGGGTKLTVLGGGGSDKTHTCPPCPAPELLGGPSVFLFPPKPKDTLMISRTPEVTCVVVAVSHEDPEVKFNWYVDGVEVHNAKTKPREEQYASTYRVVSVLTVLHQDWLNGKEYKCKVSNKALAAPIEKTISKAKGQPREPQVYTLPPCREEMTKNQVSLWCLVKGFYPSDIAVEWESNGQPENNYKTTPPVLDSDGSFFLYSKLTVDKSRWQQGNVFSCSVMHEALHNRYTQKSLSLSPGK	mediated RTCC activity	mediated RTCC activity	induced proliferation of T cells; also recorded: induced T cell proliferation	more potent activity than the NEG218-based BBM
NEG218-based BBM: knob-into-hole IgG1 bispecific with NEG218-based anti-CD19 Fab and CD3hi anti-CD3 scFv (antibody) heavy: EVQLVQSGAEVKKPGESLKISCKASGYSFTNYWMNWVRQMPGKGLEWMGMIHPSDSEIRLNQKFQGQVTLSVDKSIGTAYMQWSSLKASDTAMYYCSRWYYLSSPMDYWGQGTTVTVSSASTKGPSVFPLAPSSKSTSGGTAALGCLVKDYFPEPVTVSWNSGALTSGVHTFPAVLQSSGLYSLSSVVTVPSSSLGTQTYICNVNHKPSNTKVDKRVEPKSCDKTHTCPPCPAPELLGGPSVFLFPPKPKDTLMISRTPEVTCVVVAVSHEDPEVKFNWYVDGVEVHNAKTKPREEQYASTYRVVSVLTVLHQDWLNGKEYKCKVSNKALAAPIEKTISKAKGQPREPQVCTLPPSREEMTKNQVSLSCAVKGFYPSDIAVEWESNGQPENNYKTTPPVLDSDGSFFLVSKLTVDKSRWQQGNVFSCSVMHEALHNHYTQKSLSLSPGK light: EIVMTQSPATLSVSPGERATLSCRASQDVGTAVAWYQQKPGQAPRLLIYWASTRHTGIPARFSGSGSGTEFTLTISSLQSEDFAVYFCQQYSSYPYTFGQGTKLEIKRTVAAPSVFIFPPSDEQLKSGTASVVCLLNNFYPREAKVQWKVDNALQSGNSQESVTEQDSKDSTYSLSSTLTLSKADYEKHKVYACEVTHQGLSSPVTKSFNRGEC EVQLVESGGGLVQPGGSLKLSCAASGFTFNTYAMNWVRQASGKGLEWVGRIRSKYNNYATYYADSVKDRFTISRDDSKSTLYLQMNSLKTEDTAVYYCVRHGNFGNSYVSWFAYWGQGTLVTVSSGGGGSGGGGSGGGGSGGGGSQAVVTQEPSLTVSPGGTVTLTCRSSTGAVTTSNYANWVQQKPGQAPRGLIGGTNKRAPWTPARFSGSLLGDKAALTLSGAQPEDEAEYFCALWYSNLWVFGGGTKLTVLGGGGSDKTHTCPPCPAPELLGGPSVFLFPPKPKDTLMISRTPEVTCVVVAVSHEDPEVKFNWYVDGVEVHNAKTKPREEQYASTYRVVSVLTVLHQDWLNGKEYKCKVSNKALAAPIEKTISKAKGQPREPQVYTLPPCREEMTKNQVSLWCLVKGFYPSDIAVEWESNGQPENNYKTTPPVLDSDGSFFLYSKLTVDKSRWQQGNVFSCSVMHEALHNRYTQKSLSLSPGK	mediated RTCC activity	mediated RTCC activity	induced proliferation of T cells; also recorded: induced T cell proliferation	
